Test results published in the RNAGym collection of RNA variant scans (doi:10.7554/elife.90254).
Read counts are not given, so values of variants with three or more changes are uncertain.

B1: LINE1-mini (parent)
chain: GGCAGAGCUCAACACAGCGUGGCAAAGUGGCUGUGGCUAGACUGCC

Variants of: B1
Experiment: self-cleavage, relative activity (ratio to wild type); higher = more cleavage; in vitro, sequencing; the parent is a self-cleaving ribozyme

Variant | self-cleavage
G5C A6U A12C C23U | 0
G5A C13U C15A | 0.01
G5C A14C G19C U38G | 0
G5A G40U G44A | 0.04
G5A G40U G44U | 0.03
G5A G17A A24G | 0.02
G5A C15G G30C U34A | 0.04
G5A U20G G22A | 0.02
G5A C23A C42U | 2.49
G5A G7A C42G | 0.02
G5A U28C G35C G40U | 0.04
G5A G7U G17A A25C | 0.06
G5A U43C C45G | 0.09
G5A U20A G27C U34G G36U | 0.05
G5A G27U C31U | 0.2
G5A C23U G27C G30U | 0.15
G5C A6C G21U C23U C45U | 0.69
G5A G17C G22C | 0.05
G5C A12C A25U | 0.01
G5A G22U A24U G30C U32A U38C | 0.02
G5A U28G U34A G35C G44U | 0.02

Variant | self-cleavage
G5C A16C G35C | 0.02
G5A G27A G44A | 0.02
G5A C15A G29C G44U | 0.02
G5A G17A G35C G40A C42G | 0.04
G5C A6U C8A C18A C31A | 0.13
G5A C18G G30A | 0.33
G5C A11C C31A | 0.02
G5A G29U A39U C45U | 0.26
G5A C31A C42G | 0.02
G5A G7U U32C | 0.19
G5A G19U U32G | 0.03
G5A G35A G36U U43C | 0.09
G5A U32C C46U | 0.07
G5A U38G G40C C46A | 0.11
G5A C15A C18A C31U | 0.04
G5C A14U G21A U28G | 0.01
G5A U9C G21U A25C C37G | 0.02
G5A U9G G29U G36A | 1
G5A U9G C15A G17C G29C G40A | 0.07
G5A G7A A24G | 0.35
G5A U9A C15U G33C | 0.28

Variant | self-cleavage
G5A U9G A11C C42G | 0.02
G5C A6G A26U U34C | 0.05
G5C A14G G27A G30U C31U | 0.08
G5A G7A G22A | 0.3
G5A C13A U32G G33C C46G | 0.04
G5A G7U C10G A12G | 0.04
G5C A6G A14C G22U C37A | 0.02
G5A U20C C23U | 0.03
G5A G30C C31A | 0.05
G5A G30C C31G | 0.05
G5A C15A G19U G36U C37U | 0.1
G5C A11U C45A | 0.04
G5C A6C A14U A16U G29A | 0.14
G5A G19A A24C C42A | 0.02
G5C A6U C13A C15A G40U | 0.02
G5C A16G G17U G19A U20C | 0.04
G5A U38C C45G | 0.08
G5A U32C G40A | 0.04
G5A G30A U38A A41G C42A | 0.11
G5A C13A A14C C37A | 0.05
G5C A14C A26C C45G | 0.02

Variant | self-cleavage
G5A C23A A25G | 0.16
G5A G17A C37U | 0.04
G5C A11G C31A A39G | 0.02
G5A U9A G30U G44A C46A | 0.2
G5A G19C G33U U34A | 0.04
G5A U34C G40U | 0.03
G5A C23A A26C | 0.06
G5A G33U G35U A39G | 0.08
G5A C15U G27C | 0.03
G5C A12U C18G G19U U28A | 0.01
G5A G7C C8A | 1.36
G5C A6G G30C G40A | 0.01
G5A U28A C42G | 0.02
G5A G36U C37A | 0.11
G5A G7C A24U G30C A39C A41U C46A | 0.02
G5C A16C G17A | 0.04
G5A U9A U28A G40U | 0.12
G5A G17C G33U | 0.05
G5A G7A U32A C45U | 0.12
G5A U20G C45G | 0.02
G5A C13U A39U | 0.51
